From PMC4336329 (PLoS ONE, 2015)
Among all 310,000 compounds or so, about 2,200 (0.71%) showed an effect of 50% or more. Effects have a minus sign here. This is one part of the list.

molecular target: human ether-à-go-go-related gene (hERG) potassium channel (human, UniProt Q12809); experiment: primary screen, population patch clamp on CHO cells stably expressing hERG
Sequence (Q12809 whole entry, looked up): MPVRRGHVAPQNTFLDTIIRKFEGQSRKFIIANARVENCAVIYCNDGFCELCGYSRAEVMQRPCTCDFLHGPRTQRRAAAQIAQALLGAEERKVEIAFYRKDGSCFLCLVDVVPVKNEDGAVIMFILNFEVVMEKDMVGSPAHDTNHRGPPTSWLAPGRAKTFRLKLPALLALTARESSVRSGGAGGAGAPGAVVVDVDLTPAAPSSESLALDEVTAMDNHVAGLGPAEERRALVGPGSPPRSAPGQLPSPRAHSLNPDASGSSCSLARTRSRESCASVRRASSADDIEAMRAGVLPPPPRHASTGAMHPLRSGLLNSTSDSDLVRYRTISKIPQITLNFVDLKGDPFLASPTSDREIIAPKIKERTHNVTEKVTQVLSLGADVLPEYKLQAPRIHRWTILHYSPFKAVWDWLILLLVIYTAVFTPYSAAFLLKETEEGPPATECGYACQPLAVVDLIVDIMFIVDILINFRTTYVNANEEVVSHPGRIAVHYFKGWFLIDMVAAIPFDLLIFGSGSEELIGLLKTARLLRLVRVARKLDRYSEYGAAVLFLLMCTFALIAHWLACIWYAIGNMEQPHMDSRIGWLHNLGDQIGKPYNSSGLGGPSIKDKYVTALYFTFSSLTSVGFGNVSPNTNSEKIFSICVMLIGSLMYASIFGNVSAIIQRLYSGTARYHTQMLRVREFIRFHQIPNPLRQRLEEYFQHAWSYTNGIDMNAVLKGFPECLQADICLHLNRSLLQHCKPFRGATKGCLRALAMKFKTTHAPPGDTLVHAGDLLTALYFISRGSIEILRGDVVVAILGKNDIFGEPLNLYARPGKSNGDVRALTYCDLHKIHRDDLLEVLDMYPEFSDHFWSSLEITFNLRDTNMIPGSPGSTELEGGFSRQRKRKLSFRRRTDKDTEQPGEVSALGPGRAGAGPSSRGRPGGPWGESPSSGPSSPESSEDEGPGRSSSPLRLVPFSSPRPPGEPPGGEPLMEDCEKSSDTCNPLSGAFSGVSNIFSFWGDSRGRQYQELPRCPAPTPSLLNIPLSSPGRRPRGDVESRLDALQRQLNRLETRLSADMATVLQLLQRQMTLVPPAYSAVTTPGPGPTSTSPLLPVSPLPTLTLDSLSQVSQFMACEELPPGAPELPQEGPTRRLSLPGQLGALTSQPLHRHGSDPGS

In order of falling “hERG current change (%, negative = inhibition) at 1uM” value:
1. COC(=O)c1cc(C(=O)c2cc(Br)ccc2O)coc1=N  24.7%
2. O=C(CCN1C(=O)/C(=C/c2ccccc2Cl)SC1=S)N1CCOCC1  24.5%
3. CCOc1ccc(Cc2noc3c2C(=O)CCC3)cc1OCC  23.3%
4. CC1(C)CC(=O)C(N=Nc2cc(S(=O)(=O)N3CCOCC3)ccc2Cl)=C(O)C1  19.3%
5. Cc1ccccc1NC(=O)c1c(C)cc(=O)oc1C  18.8%
6. O=C(COc1ccc(S(=O)(=O)N2CCCCC2)cc1)NCc1ccccn1  18.3%
7. O=S(=O)(c1ccc(Cl)cc1)N1CCC(n2cccc2)CC1  17.8%
8. O=C(Oc1cccc(C(=S)N2CCOCC2)c1)c1cccc(Cl)c1  17.5%
9. Cc1ccc(SCC(=O)NCCc2ccc(F)cc2)cc1  17.1%
10. CS(=O)(=O)C1=NSC2=NC(=O)/C(=C\c3ccc(OC(=O)c4ccco4)cc3)C(=N)N21  16.3%
11. CCN1C(=C(C#N)C#N)C=Cc2ccccc21  15.9%
12. CCSc1nnc(CNC(=O)c2ccccc2F)n1-c1ccccc1OC  15.2%
13. O=C(Nc1cccc2ncccc12)c1cc([N+](=O)[O-])ccc1Cl  15%
14. CCc1c(C(=O)N/N=C/c2ccco2)nnn1-c1nonc1N  14.8%
15. COC(=O)c1c(N2C(=O)CC(Sc3ccccc3C(=O)O)C2=O)sc(C)c1C (stereo not drawn)  14.8%
16. O=C(COC(=O)c1ccc(O)cc1O)N=c1sccn1Cc1ccccc1Cl  14.6%
17. Cc1ccc(C(O)P(=O)(OCCC(C)C)c2ccc(N(C)C)cc2)cc1 (stereo not drawn)  14%
18. COc1cc(S(=O)(=O)Nc2ccc3nc(C)sc3c2)ccc1NC(C)=O  13.3%
19. CCCCOc1ccc(C(C)NC(=O)CCS(=O)(=O)Cc2ccccc2Cl)cc1 (stereo not drawn)  13.2%
20. S=c1[nH]nc(-c2ccc(Cl)cc2Cl)n1-c1ccc2c(c1)OCCO2  13%
21. CC1CN(c2ccccc2)c2nc3c(c(=O)[nH]c(=O)n3C)n2C1 (stereo not drawn)  12.6%
22. Cc1cccc(/C=C(\C(=O)C(=O)O)c2ccc3ccccc3n2)c1  12.5%
23. Cc1onc(-c2ccccc2Cl)c1C(=O)N(Cc1ccccc1)C(C)C  12.4%
24. Cc1ccc2nc(Nc3nc(C)cc(C(F)(F)F)n3)nc(C)c2c1  12.3%
25. O=C(NC(=O)c1ccccc1)OCC(F)(F)F  12.2%
26. O=C(CNC(=O)c1ccco1)NCC(=O)OCC(=O)c1ccc(Cl)c([N+](=O)[O-])c1  12.2%
27. O=C1CCC(=O)N1OCCOc1ccc(Cl)c2ccccc12  12.2%
28. Cc1ccc(S(=O)(=O)NCCCCCC(=O)Nc2cccc(C)c2)cc1  12.1%
29. COc1cc(-c2nnc(SCc3c(F)cccc3Cl)o2)cc(OC)c1OC  11.8%
30. O=C(O)CCC(=O)N1CCC(n2nnc3cc(C(F)(F)F)ccc32)CC1  11.4%
31. CC1=NN(c2nc3ccccc3s2)C(O)(C(F)(F)F)C1 (stereo not drawn)  11.3%
32. CCOc1ccc(-n2nnc3c(=O)n(CC(=O)NCc4ccco4)cnc32)cc1  11.1%
33. CC1(C)CC(=O)c2cc(C(=O)NC3CCSC3=O)c(=O)n(-c3ccccc3)c2C1 (stereo not drawn)  10.9%
34. C#CCOCCOCCOCCNc1nc(N2CCN(C(=O)[C@H](Cc3cc4ccccc4[nH]3)n3cc([C@@H](N)C(C)CC)nn3)CC2)nc(N2CCN(C(=O)[C@H](Cc3cc4ccccc4[nH]3)n3cc([C@@H](N)Cc4ccc(O)cc4)nn3)CC2)n1.Cl (stereo partly drawn)  10.9%
35. COc1cccc(OCCCN2CCN(S(=O)(=O)c3ccc(NC(C)=O)cc3)CC2)c1  10.6%
36. CC(C)Cc1ccc(/C(=N/O)C(=O)O)s1  10.6%
37. CSc1nc(SC)c2c3c(oc2n1)COC(C)(C)C3  10.5%
38. O=C(CCSc1ccc(Cl)cc1)NCc1ccccn1  10.4%
39. O=C(Nc1ccccc1C(=O)N1CCCC1)c1ccc(Cl)cc1Cl  10.3%
40. COc1ccccc1CNC(=O)C(C)Sc1ccsc1[N+](=O)[O-] (stereo not drawn)  10.1%
41. Cl.O=C(CCc1ccccc1)OCCN1CCOCC1  9.99%
42. Cc1cc(C)c2nc(N3CCC(C(=O)NCc4ccccn4)CC3)sc2c1  9.75%
43. COc1ccc(N=Cc2nc(-c3ccccc3)oc2OC(=O)c2ccccc2)cc1  9.59%
44. CC12CCC(C(=O)n3c1nc1ccccc13)C2(C)C (stereo not drawn)  9.54%
45. Cc1c2cnn(CC(=O)NCCCN3CC(C)CC(C)C3)c(=O)c2c(C)n1Cc1ccc(Cl)cc1 (stereo not drawn)  9.41%
46. Cc1cccc(OCC(O)Cn2c(N3CCCCC3)nc3c2c(=O)[nH]c(=O)n3C)c1 (stereo not drawn)  9.31%
47. Cc1cccc(NC(=O)CN2C(=O)COc3ccc(Cl)cc32)c1  8.94%
48. COC(=O)c1ccc(NC(=O)CSC2=Nc3ccccc3C3CC=NN23)cc1 (stereo not drawn)  8.83%
49. Cc1cc(OCC(=O)NCc2ccccn2)c2c(C)cc(=O)oc2c1  8.74%
50. Cc1cc(S(=O)(=O)Nc2ccc(C(=O)NCCCN3CCCC3=O)cc2)ccc1F  8.54%
51. COc1cc(S(=O)(=O)N(C)Cc2ccc3c(c2)OCCO3)ccc1NC(C)=O  8.5%
52. C/C(=N\NC(=O)c1nnn(-c2nonc2N)c1C(C)C)c1ccncc1  8.4%
53. COc1ccc(OC2OC3COC(c4ccco4)OC3C(O)C2NC(C)=O)cc1 (stereo not drawn)  8.3%
54. CCC(=O)N1CCN(CCN=CC2=C(O)CC(C)(C)CC2=O)CC1  8.04%
55. CCOC(=O)c1c(S(=O)(=O)N2CCN(C)CC2)c(C)n(C)c1C  7.87%
56. O=[N+]([O-])c1ccc(/C=N/N/C(=N/c2ccccn2)c2ccccn2)cc1  7.3%
57. COc1ccc(C(=O)N2CCC(c3ccccc3)CC2)c(OC)c1OC  7.25%
58. N#Cc1c(NC(=O)C2CC(Cl)=CCC2C(=O)O)sc2c1CCCC2 (stereo not drawn)  7.1%
59. COc1ccccc1-c1nnc(NC(=O)C(C)SC2=NCCS2)s1 (stereo not drawn)  6.93%
60. CCc1nc(NC(=O)c2sc(C)nc2C)sc1C(=O)OC  6.61%
61. O=C(O)CC1(CC(=O)Nc2ccc3c(c2)OCCCO3)CCCCC1  6.45%
62. COc1ccc(CCN(C)C2CC(=O)N(c3ccccc3)C2=O)cc1OC (stereo not drawn)  5.35%
63. Cc1nc2c(C(F)(F)F)cccc2c2c1CCS2  5.28%
64. COc1ccc2sc(NC(C)=O)nc2c1  5.13%
65. Cc1nn(-c2ccccc2)c(N)c1N=Nc1ccccc1  5.06%
66. COc1ccccc1NS(=O)(=O)c1cc(NC(=O)C(C)NC(N)=O)ccc1N1CCCC1 (stereo not drawn)  4.13%
67. CCOC(=O)CC1NC(=O)c2ccccc21 (stereo not drawn)  4%
68. Cc1ccc(C)c(NC(=O)C2CC(=O)N(C3CCCCC3)C2)c1 (stereo not drawn)  3.55%
69. O=C(Nc1ccc(F)cc1)c1ccccc1NS(=O)(=O)N1CCCC1  2.58%
70. CCCCN(CCCC)C(=O)CN(C)S(=O)(=O)c1ccc2c(c1)n(C)c(=O)c(=O)n2C  2.52%
71. O=C(OCC(=O)N1CCc2ccccc21)c1ccncc1  0.712%
72. O=C(Cn1cnc2c(nnn2-c2ccccc2)c1=O)NCc1ccco1  -0.107%
73. O=C(NCc1nc2ccccc2[nH]1)c1cccc(S(=O)(=O)N2CCOCC2)c1  -0.27%
74. CCCC(C)NC(=O)CSc1nnc(-c2c[nH]c3ccccc23)o1 (stereo not drawn)  -0.615%
75. c1ccc(CN2CCC(N3CCN(Cc4ccc5c(c4)OCO5)CC3)CC2)cc1  -0.767%
76. CCn1cc(/C=C(\NC(=O)c2ccccc2F)C(=O)NCCCn2ccnc2)c2ccccc21  -1.46%
77. O=C(Nc1cc(Cl)ccc1Oc1ccccc1)c1ccc(F)cc1  -1.7%
78. CSc1nc(NCCOCCO)c2sc3nc(-c4ccco4)c4c(c3c2n1)CCC4  -2.08%
79. CCCCCOC(=O)C1=C(C)N(C)C(=O)NC1c1cc(Br)c(O)c(OC)c1 (stereo not drawn)  -2.63%
80. CCOc1ccccc1N1CCN(Cc2cnc(-c3ccccc3)[nH]2)CC1  -3.01%
81. NC(=O)c1cnn2c(C(F)(F)F)cc(-c3ccc(F)cc3)nc12  -3.31%
82. Cc1ccc(OCC(=O)Nc2cc(S(=O)(=O)N3CCCCC3)ccc2N2CCN(C)CC2)c(C)c1  -4.54%
83. CC1CCCC(NCC(O)COC(c2ccc(F)cc2)c2ccc(F)cc2)C1C (stereo not drawn)  -6.03%
84. CN(Cc1cn(Cc2ccccc2)nc1-c1ccc2c(c1)OCO2)Cc1nccn1C  -6.55%
85. CC1CC(C)CN(CCC(=O)Nc2ccc(Br)cc2)C1.Cl (stereo not drawn)  -9.22%
86. Cc1ccc([N+](=O)[O-])c(OCCN2CCCCCC2)c1.O=C(O)C(=O)O  -9.99%
87. COc1ccc(-c2nn(-c3ccccc3C)cc2CNCCc2cnc[nH]2)cc1F  -12.9%
